# Test results as given in the RNAGym collection of RNA variant scans (doi:10.1093/nar/gkz1192).
# Read counts are not given, so values of variants with three or more changes are uncertain.
# B1: CPEB3 Ribozyme (parent)
# chain: UAACAGGGGGCCACAGCAGAAGCGUUCACGUCGCAGCCCCUGUCAGAUUCUGGUGAAUCUGCGAAUUCUGCUGUAUAUCUC
# Variants of: B1
# Test: self-cleavage, relative activity (ratio to wild type); higher = more cleavage; in vitro, sequencing
# Method in brief: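 Relative activity was defined as the cleaved/total read fraction for a variant divided by the same fraction for the unmutated ribozyme. CPEB3 self-cleaving ribozyme libraries were made by rounds of error-prone PCR, barcoded, and transcribed in vitro with T7 RNA polymerase for 5 hours at 37°C, and cleavage ran through transcription plus a 15 min DNase I step before EDTA. Illumina sequencing of template-switched reverse transcripts gave the reads, and DNA sequencing mapped the barcodes. Averages come from three batches, using variants with at least 5 reads.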
row,Variant,self-cleavage
1,UAACAGGGGGCCACAGCAGAAGCGUUCACGACGCAGCCCCUGUCAGAUCCUGGUAAUUCUGCGUAUUCUGCUGUAUAUCUC [U31A U49C G55A A57U A64U],0.07
2,UAACAGGGGGCCACAGCAGAAGCGUUCACGACGCAGCCCCUGUCAGAUUCUGGCGAAUCUGCGAAUUCUGCUGUAUAUAUC [U31A U54C C79A],0.48
3,UAACAGGGGGCCACAGCAGAAGCGUUCACGCCGCUGCCCCUGUCAGAUACUGGUGAAUCUGCGAAUUCUGCUGUAUACCUC [U31C A35U U49A U78C],0.08
4,UAACAGGGGGCCACAGCAGAAGCGUUCACGCCGCGGCCCCUGUCAGAUUCUGGUGAAUCAGCGAAUUCUGCUGUAUAUCUC [U31C A35G U60A],0.66
5,UAACAGGGGGCCACAGCAGAAGCGUUCACGACGCAGCCCCUGUCAGAUUCUGGUGAAUCCGCGAAUUCUGCUGUAUAUAUC [U31A U60C C79A],0.27
6,UAACAGGGGGCCACAGCAGAAGCGUUCACGCCGCGGCCCCUGUCUGAUUCUGGUGAAUCUGCGACUUCCGCAGUAUAUCUC [U31C A35G A45U A65C U69C U72A],0.18
7,UAACAGGGGGCCACAGCAGAAGCGUUCACGACGCAGCCCCUGUCAGAUUCUGGGGAAUCUGCGAAUUCUGCCGUAUAUCUC [U31A U54G U72C],0.74
8,UAACAGGGGGCCACAGCAGAAGCGUUCACGCCGCGGCCCGUGUCAGAUUCUGGCGAAUCUGCGGAUUCUGCUGUAUAUCUC [U31C A35G C40G U54C A64G],0.21
9,UAACAGGGGGCCACAGCAGAAGCGUUCACGCCGCGGCCCCUGUCGGAUUCUGGUGAAUCUGCGUACUCUGCUGUAUAUCUC [U31C A35G A45G A64U U66C],0.26
10,UAACAGGGGGCCACAGCAGAAGCGUUCACGCCGCGGCCCCUGUCAGAUUCUGGUGAAUCUGCGAAGUCUGCUGUAUAUCUC [U31C A35G U66G],0.88
11,UAACAGGGGGCCACAGCAGAAGCGUUCACGACGCAGCCCCUGCCAGAUUCUGAUGAAUCUGCGAAUUCUGCUGUAUAUCUC [U31A U43C G53A],0.47
12,UAACAGGGGGCCACAGCAGAAGCGUUCACGACGCAGCCCCUGACAGGUUCUGGUGGAUCUGCGAAUUCUGCUGUAUAUCUC [U31A U43A A47G A56G],0.39
13,UAACAGGGGGCCACAGCAGAAGCGUUCACGACGCAGCCCCUGUCAGAAUCUGGUGAAUCCGCGAAUUCUGCUAUAUAUCUC [U31A U48A U60C G73A],0.08
14,UAACAGGGGGCCACAGCAGAAGCGUUCACGCCGCAGCCCCUGUCUGAUUCUGGUGAAUCUGCGAAUUCUGCCGUAUAACUC [U31C A45U U72C U78A],0.29
15,UAACAGGGGGCCACAGCAGAAGCGUUCACGACGCAGCCCCUGCCAGAUUCUGGUGAAUCUGCGAAUUCCGCUGUAUCUCUC [U31A U43C U69C A77C],0.15
16,UAACAGGGGGCCACAGCAGAAGCGUUCACGACGCAGCCCCUGCCAGAUUCUGGUGAAUCUGCGAAUCCUGCUGUUUAUCUC [U31A U43C U67C A75U],0.1
17,UAACAGGGGGCCACAGCAGAAGCGUUCACGACGCAGCCCCUGUCAGAUUCUGGUGAAUCUGCGAACUCUGCUGAACAUCUC [U31A U66C U74A U76C],0.17

row,Variant,self-cleavage
1,UAACAGGGGGCCACAGCAGAAGCGUUCACGACGCAGCCCCUGUCAGAUUCUGGUGAAUCAGCGAAUUCUGCUGUAUAUCCC [U31A U60A U80C],0.3
2,UAACAGGGGGCCACAGCAGAAGCGUUCACGACGCAGCCCCUGUCAGAUUCUGGUGAACCUGCGAAUUCUGCCGUAUAUCUC [U31A U58C U72C],0.28
3,UAACAGGGGGCCACAGCAGAAGCGUUCACGACGCAGCCCCUGUCAGAUUCAGGUGGGUCUGCGAAUUCUGCUGUAUAUCUC [U31A U51A A56G A57G],0.21
4,UAACAGGGGGCCACAGCAGAAGCGUUCACGACGCAGCCCCUGUCAGAUCCAGGUGAAUCUGCGAAUCCUGCUGUAUAUCUC [U31A U49C U51A U67C],0.26
5,UAACAGGGGGCCACAGCAGAAGCGUUCACGACGCAGCCCCGGUCAGAUUCUGGUGAAUCGGCGAAUUCUGCUGUAUACCUC [U31A U41G U60G U78C],0.11
6,UAACAGGGGGCCACAGCAGAAGCGUUCACGCCGCGGGCCCUGUCAGAUUCUGGUGAAUCUGCGAAUUCUGCUGUAUAUCUC [U31C A35G C37G],0.31
7,UAACAGGGGGCCACAGCAGAAGCGUUCACGCCGCGGCCUCUGUCAGAUUCUGGUGAAUCUGCGAAUUCUGCUGUAUAUCUC [U31C A35G C39U],1.29
8,UAACAGGGGGCCACAGCAGAAGCGUUCACGACGCAGCCCCUGUCAGAUUCUGGUGAACCCGCGAAUUCUGCCGUAUAUCUC [U31A U58C U60C U72C],0.13
9,UAACAGGGGGCCACAGCAGAAGCGUUCACGCCGCGGCCCCUGUCAGAUUCUGGCGAAUCUGCGAAUUCUGCUGUAUAUCUC [U31C A35G U54C],1.19
10,UAACAGGGGGCCACAGCAGAAGCGUUCACGCCGCAGCCCCUGUCGGGUUCUGGUGAAUCUGCGAAUUCUGCUGUAUAUCUC [U31C A45G A47G],0.21
11,UAACAGGGGGCCACAGCAGAAGCGUUCACGACGCAGCCCCUGUCAGAUUCAGGUGAAUCUGCGAAUCCUGCUGUAUAUCUC [U31A U51A U67C],0.17
12,UAACAGGGGGCCACAGCAGAAGCGUUCACGACGCAGCCCCUGUCAGAUUCUGGUGAAUCUGCGAAUACUGCUGUAUAACUC [U31A U67A U78A],0.2
13,UAACAGGGGGCCACAGCAGAAGCGUUCACGACGCAGCCCCUGUCAGAUUCUGGUGAAUCAGCGAAUUCGGCUGUAUAUCUC [U31A U60A U69G],0.15
14,UAACAGGGGGCCACAGCAGAAGCGUUCACGACGCAGCCCCUGUCAGAUUCUGGUGAAUCUGCGAAUCCUGCCGUAUAUCCC [U31A U67C U72C U80C],0.15
15,UAACAGGGGGCCACAGCAGAAGCGUUCACGACGCAGCCCCUGUCAGAUUCUGGCGAAUCCGCGAAUUCUGCUGUAUAUCUC [U31A U54C U60C],0.23
16,UAACAGGGGGCCACAGCAGAAGCGUUCACGACGCAGCCCCUGUCAGACUCUGGUGAAUCUGCGGAUUCUGCUGUAUAUCUC [U31A U48C A64G],0.39
17,UAACAGGGGGCCACAGCAGAAGCGUUCACGACGCAGCCCCUGUCAGAUUCUGGCGAAUCUGCGAAUUCUGCUGUACAUCUC [U31A U54C U76C],0.49
